Test results: a collection of fitness landscapes (doi:10.1126/science.1257360)
The other results are listed elsewhere or left out.

B1: PhoQ; a variant is named by its letters at X, in order, P23837 (parent)
chain: MKKLLRLFFPLSLRVRFLLATAAVVLVLSLAYGMVALIGYSVSFDKTTFRLLRGESNLFYTLAKWENNKLHVELPENIDKQSPTMTLIYDENGQLLWAQRDVPWLMKMIQPDWLKSNGFHEIEADVNDTSLLLSGDHSIQQQLQEVREDDDDAEMTHSVAVNVYPATSRMPKLTIVVVDTIPVELKSSYMVWSWFIYVLSANLLLVIPLLWVAAWWSLRPIEALAKEVRELEEHNRELLNPATTRELTSLVRNLNRLLKSERERYDKYRTTLTDLTHSLKTPLXXLQXXLRSLRSEKMSVSDAEPVMLEQISRISQQIGYYLHRASMRGGTLLSRELHPVAPLLDNLTSALNKVYQRKGVNISLDISPEISFVGEQNDFVEVMGNVLDNACKYCLEFVEISARQTDEHLYIVVEDDGPGIPLSKREVIFDRGQRVDTLRPGQGVGLAVAREITEQYEGKIVAGESMLGGARMEVIFGRQHSAPKDE

Variants of: B1
Assay: enrichment ratio after two sorts for PhoP signalling (ratio (wild type AVST 3.29)); higher = more functional
Conditions: with PhoP (E. coli)

| Variant | enrichment ratio |
| --- | --- |
| IKRK | ≤ 0.25 |
| LAVE | ≤ 0.25 |
| NDRI | ≤ 0.25 |
| VGCC | 4.93 |
| KGGV | ≤ 0.25 |
| RVGP | ≤ 0.25 |
| FYWF | ≤ 0.25 |
| NFLW | ≤ 0.25 |
| FTRY | ≤ 0.25 |
| ELQM | ≤ 0.25 |
| GINF | 1.84 |
| WNTI | ≤ 0.25 |
| YMPD | ≤ 0.25 |
| NYYT | ≤ 0.25 |
| NQTV | ≤ 0.25 |
| YAER | ≤ 0.25 |
| RQLI | ≤ 0.25 |
| GFPD | ≤ 0.25 |
| RDYT | ≤ 0.25 |
| IWET | ≤ 0.25 |
| IMSG | ≤ 0.25 |
| DIIE | ≤ 0.25 |
| HDGV | ≤ 0.25 |
| HEQP | ≤ 0.25 |

| Variant | enrichment ratio |
| --- | --- |
| IHPM | ≤ 0.25 |
| VNTS | ≤ 0.25 |
| EVSG | ≤ 0.25 |
| HLHP | ≤ 0.25 |
| VFKD | ≤ 0.25 |
| AEAD | ≤ 0.25 |
| VITF | ≤ 0.25 |
| PNWK | ≤ 0.25 |
| NFRC | ≤ 0.25 |
| WNMG | ≤ 0.25 |
| PCYP | ≤ 0.25 |
| SMYQ | ≤ 0.25 |
| KAKY | ≤ 0.25 |
| MMVG | ≤ 0.25 |
| FPAL | ≤ 0.25 |
| HQCV | ≤ 0.25 |
| TFPC | ≤ 0.25 |
| NCGT | ≤ 0.25 |
| ECCK | ≤ 0.25 |
| PWRR | ≤ 0.25 |
| FLGK | ≤ 0.25 |
| NCMP | ≤ 0.25 |
| QDVW | ≤ 0.25 |
| GFDE | ≤ 0.25 |

| Variant | enrichment ratio |
| --- | --- |
| KYAN | ≤ 0.25 |
| ACYS | 0.536 |
| TFTT | ≤ 0.25 |
| MYQD | ≤ 0.25 |
| IAMI | 8.99 |
| MRTE | ≤ 0.25 |
| MFMI | ≤ 0.25 |
| HQFG | ≤ 0.25 |
| EQWY | ≤ 0.25 |
| TCII | ≤ 0.25 |
| TPLE | ≤ 0.25 |
| AEYC | 5.28 |
| LVWY | ≤ 0.25 |
| WHHW | ≤ 0.25 |
| SNVM | 4.8 |
| ESNN | ≤ 0.25 |
| SMWM | ≤ 0.25 |
| DPLG | ≤ 0.25 |
| DETI | ≤ 0.25 |
| FFTQ | ≤ 0.25 |
| SQCY | 12.2 |
| YCSK | 0.633 |
| RGDG | ≤ 0.25 |
| RTMY | ≤ 0.25 |

| Variant | enrichment ratio |
| --- | --- |
| MKIG | ≤ 0.25 |
| FMIV | ≤ 0.25 |
| SCFN | ≤ 0.25 |
| GSEI | ≤ 0.25 |
| SYAT | 0.272 |
| TFPR | ≤ 0.25 |
| HKPA | ≤ 0.25 |
| PNNC | ≤ 0.25 |
| RGGV | ≤ 0.25 |
| FKHT | ≤ 0.25 |
| QGKL | ≤ 0.25 |
| SEGQ | ≤ 0.25 |
| LPPE | ≤ 0.25 |
| SRSV | ≤ 0.25 |
| ICQP | ≤ 0.25 |
| PAKL | ≤ 0.25 |
| WRYK | ≤ 0.25 |
| GRPG | ≤ 0.25 |
| KFLG | ≤ 0.25 |
| ETEK | ≤ 0.25 |
| DQRQ | ≤ 0.25 |
| NLWD | ≤ 0.25 |
| HGYR | ≤ 0.25 |
| LIKN | ≤ 0.25 |

| Variant | enrichment ratio |
| --- | --- |
| EGPN | ≤ 0.25 |
| AIQY | ≤ 0.25 |
| MICL | 7.38 |
| VVVP | ≤ 0.25 |
| LLYV | ≤ 0.25 |
| VMTN | ≤ 0.25 |
| FSQE | ≤ 0.25 |
| STID | ≤ 0.25 |
| GSCG | ≤ 0.25 |
| NCWN | ≤ 0.25 |
| QMRC | ≤ 0.25 |
| LMEK | ≤ 0.25 |
| DFCV | ≤ 0.25 |
| VVLH | ≤ 0.25 |
| TMIP | ≤ 0.25 |
| TPAS | ≤ 0.25 |
| REAC | ≤ 0.25 |
| EAFV | ≤ 0.25 |
| KVYD | ≤ 0.25 |
| MVTI | 1.79 |
| FHWF | ≤ 0.25 |
| GIAF | 4.76 |
| IDDE | ≤ 0.25 |
| SIRT | ≤ 0.25 |

| Variant | enrichment ratio |
| --- | --- |
| QDPK | ≤ 0.25 |
| MEDG | ≤ 0.25 |
| KTSV | ≤ 0.25 |
| SGWR | ≤ 0.25 |
| VAPI | ≤ 0.25 |
| QRCT | ≤ 0.25 |
| RNSP | ≤ 0.25 |
| TADD | ≤ 0.25 |
| WSLG | ≤ 0.25 |
| IYMS | ≤ 0.25 |
| MGKC | ≤ 0.25 |
| HHGM | ≤ 0.25 |
| DDFD | ≤ 0.25 |
| DMTP | ≤ 0.25 |
| VAEH | ≤ 0.25 |
| KALP | ≤ 0.25 |
| RICH | ≤ 0.25 |
| SMLP | ≤ 0.25 |
| FELI | 10.8 |
| RWDL | ≤ 0.25 |
| NSLC | ≤ 0.25 |
| LWAR | ≤ 0.25 |
| VELC | 11 |
| IFHC | ≤ 0.25 |

| Variant | enrichment ratio |
| --- | --- |
| FLRK | ≤ 0.25 |
| PIKI | ≤ 0.25 |
| EQQS | ≤ 0.25 |
| MLWL | ≤ 0.25 |
| PENS | ≤ 0.25 |
| MMFE | ≤ 0.25 |
| IMNM | ≤ 0.25 |
| HNVT | ≤ 0.25 |
| EYRF | ≤ 0.25 |
| VFPL | ≤ 0.25 |
| HNGQ | ≤ 0.25 |
| YENE | ≤ 0.25 |
| TMFW | ≤ 0.25 |
| HDYI | ≤ 0.25 |
| PGHH | ≤ 0.25 |
| YHEF | ≤ 0.25 |
| DSYD | ≤ 0.25 |
| FFEA | ≤ 0.25 |
| IDAT | ≤ 0.25 |
| RSYA | ≤ 0.25 |
| KKYQ | ≤ 0.25 |
| AKKF | ≤ 0.25 |
| IGEV | ≤ 0.25 |
| FDPG | ≤ 0.25 |

| Variant | enrichment ratio |
| --- | --- |
| LECS | 1.03 |
| SSPL | 1.2 |
| NIVY | ≤ 0.25 |
| FFKK | ≤ 0.25 |
| FAKP | ≤ 0.25 |
| YDLC | ≤ 0.25 |
| HWET | ≤ 0.25 |
| KVMN | ≤ 0.25 |
| IPVG | ≤ 0.25 |
| QHQV | ≤ 0.25 |
| AYTM | ≤ 0.25 |
| LSDN | ≤ 0.25 |
| NKLC | ≤ 0.25 |
| HSRK | ≤ 0.25 |
| EYDS | ≤ 0.25 |
| QAMY | ≤ 0.25 |
| VQEV | ≤ 0.25 |
| KLCI | ≤ 0.25 |
| KPMI | ≤ 0.25 |
| TIEH | 27.9 |
| ALYW | ≤ 0.25 |
| YTML | 5.16 |
| PCSR | ≤ 0.25 |
| PNNR | ≤ 0.25 |

| Variant | enrichment ratio |
| --- | --- |
| NHLY | ≤ 0.25 |
| VWWT | ≤ 0.25 |
| GARD | ≤ 0.25 |
| LAFV | 0.348 |
| TVGF | 18.5 |
| TNLD | 0.487 |
| HNEG | ≤ 0.25 |
| VKMP | ≤ 0.25 |
| WSLY | 0.984 |
| WPLN | ≤ 0.25 |
| FEAI | ≤ 0.25 |
| RGSG | ≤ 0.25 |
| SPDN | ≤ 0.25 |
| RHKS | ≤ 0.25 |
| TGQI | 7.66 |
| PPNE | ≤ 0.25 |
| SSNF | 1.62 |
| NKRT | ≤ 0.25 |
| RDRG | ≤ 0.25 |
| LSHW | 0.321 |
| KKTS | ≤ 0.25 |
| AGPS | ≤ 0.25 |
| WWLW | ≤ 0.25 |
| VITR | ≤ 0.25 |

| Variant | enrichment ratio |
| --- | --- |
| ACLY | 15.2 |
| SHHM | ≤ 0.25 |
| VDRY | ≤ 0.25 |
| RTYT | ≤ 0.25 |
| VPTK | ≤ 0.25 |
| WFSW | ≤ 0.25 |
| PAYS | ≤ 0.25 |
| FEGT | ≤ 0.25 |
| YVIG | ≤ 0.25 |
| TRQA | ≤ 0.25 |
| RIFT | ≤ 0.25 |
| GCIP | ≤ 0.25 |
| GFAK | ≤ 0.25 |
| PFKC | ≤ 0.25 |
| RFEL | ≤ 0.25 |
| SPIW | ≤ 0.25 |
| MTFH | 3.3 |
| QDRA | ≤ 0.25 |
| EHRV | ≤ 0.25 |
| FFCA | ≤ 0.25 |
| EGSC | ≤ 0.25 |
| RPRN | ≤ 0.25 |
| KDCH | 2.1 |
| IYNC | ≤ 0.25 |

| Variant | enrichment ratio |
| --- | --- |
| VKIY | ≤ 0.25 |
| RMMI | ≤ 0.25 |
| RPMP | ≤ 0.25 |
| EDLQ | ≤ 0.25 |
| MEYT | 5.58 |
| RHKA | ≤ 0.25 |
| HCNF | ≤ 0.25 |
| QLGK | 3.11 |
| WFKH | ≤ 0.25 |
| HGDS | ≤ 0.25 |
| LNTN | ≤ 0.25 |
| RGIN | ≤ 0.25 |
| DGAI | ≤ 0.25 |
| VDDQ | ≤ 0.25 |
| HSQQ | ≤ 0.25 |
| FWVE | ≤ 0.25 |
| FKQI | ≤ 0.25 |
| IMDH | ≤ 0.25 |
| LCSC | ≤ 0.25 |
| WSDV | ≤ 0.25 |
| YMME | 0.355 |
| TKTA | 7.23 |
| MPCT | ≤ 0.25 |
| MAHV | 1.31 |

| Variant | enrichment ratio |
| --- | --- |
| PGYP | ≤ 0.25 |
| SFGF | ≤ 0.25 |
| YYYS | ≤ 0.25 |
| KDAT | ≤ 0.25 |
| RPLM | ≤ 0.25 |
| VHHG | ≤ 0.25 |
| LSMH | ≤ 0.25 |
| GQFW | ≤ 0.25 |
| IAEE | ≤ 0.25 |
| GNSF | 1.14 |
| QGDR | ≤ 0.25 |
| HTYY | ≤ 0.25 |
| VPHP | ≤ 0.25 |
| WGVP | ≤ 0.25 |
| DLYF | ≤ 0.25 |
| NELW | ≤ 0.25 |
| LILS | ≤ 0.25 |
| STCT | 7.85 |
| HQDE | ≤ 0.25 |
| VACF | ≤ 0.25 |
| QRRP | ≤ 0.25 |
| WQYL | ≤ 0.25 |
| YAPE | ≤ 0.25 |
| RISL | ≤ 0.25 |

| Variant | enrichment ratio |
| --- | --- |
| VYIQ | ≤ 0.25 |
| HTMC | ≤ 0.25 |
| QTVI | ≤ 0.25 |
| GVGL | 1.14 |
| GYRI | ≤ 0.25 |
| KVKI | ≤ 0.25 |
| YGEP | ≤ 0.25 |
| ACIT | ≤ 0.25 |
| NHTQ | ≤ 0.25 |
| PLYM | ≤ 0.25 |
| VMRI | ≤ 0.25 |
| VVSS | ≤ 0.25 |
| WLKY | ≤ 0.25 |
| LWIK | ≤ 0.25 |
| GISL | 5.24 |
| FKWI | ≤ 0.25 |
| DICW | ≤ 0.25 |
| NTHS | ≤ 0.25 |
